Residue numbers refer to the chain shown, from its start. Names and notes keep the numbering of the source. ± gives the standard deviation of the averaged measurements. Laboratory Escherichia coli strains with one amino-acid change in an essential protein, pooled on minimal glucose agar with carbenicillin or gentamicin at twice the control MIC (plus kanamycin and chloramphenicol for the plasmids), 48 h. Fold change of barcode share against drug-free plates; higher = less susceptible. Active = above 20 in both replicates (the paper's putatively resistant). '<' = one read or none on drug, '>' = one read or none on a drug-free plate. Shares are relative, so most strains fall below 1 when a few take over. Listed are strains with at least 15 reads on both drug-free plates, and hits; most hits rest on fewer reference reads. Replicate rank correlation about 0.5. Edits are read from barcodes.

The target of this series is Escherichia coli (laboratory strain). Nature of the series: barcode share on antibiotic plates over drug-free plates; higher = less susceptible. As for the experimental part: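 A pool of E. coli strains, each edited to carry one amino-acid change in an essential protein, was grown for 48 h on minimal glucose agar with or without antibiotic; strain barcodes were sequenced; mean of two replicates.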

Where [1] appears, read: antibiotic: carbenicillin, 2× MIC (3.1 µg/mL).
The mark [2] stands for this setting: antibiotic: gentamicin, 2× MIC (MIC 0.45 µg/mL).

B1: aroC L336A (protein)
chain: MAGNTIGQLFRVTTFGESHGLALGCIVDGVPPGIPLTEADLQHDLDRRRPGTSRYTTQRREPDQVKILSGVFEGVTTGTSIGLLIENTDQRSQDYSAIKDVFRPGHADYTYEQKYGLRDYRGGGRSSARETAMRVAAGAIAKKYLAEKFGIEIRGCLTQMGDIPLDIKDWSQVEQNPFFCPDPDKIDALDELMRALKKEGDSIGAKVTVVASGVPAGLGEPVFDRLDADIAHALMSINAVKGVEIGDGFDVVALRGSQNRDEITKDGFQSNHAGGILGGISSGQQIIAHMALKPTSSITVPGRTINRFGEEVEMITKGRHDPCVGIRAVPIAEAMAAIVLMDHLLRQRAQNADVKTDIPRW
As for B1, the “fold change of barcode share” value by setting is: under setting [1], 0.564 ± 0.018; under setting [2], 0.458 ± 0.64.

B2: lolE V40Q (protein)
chain: MAMPLSLLIGLRFSRGRRRGGMVSLISVISTIGIALGVAQLIVGLSAMNGFERELNNRILAVVPHGEIEAVDQPWTNWQEALDHVQKVPGIAAAAPYINFTGLVESGANLRAIQVKGVNPQQEQRLSALPSFVQGDAWRNFKAGEQQIIIGKGVADALKVKQGDWVSIMIPNSNPEHKLMQPKRVRLHVAGILQLSGQLDHSFAMIPLADAQQYLDMGSSVSGIALKMTDVFNANKLVRDAGEVTNSYVYIKSWIGTYGYMYRDIQMIRAIMYLAMVLVIGVACFNIVSTLVMAVKDKSGDIAVLRTLGAKDGLIRAIFVWYGLLAGLFGSLCGVIIGVVVSLQLTPIIEWIEKLIGHQFLSSDIYFIDFLPSELHWLDVFYVLVTALLLSLLASWYPARRASNIDPARVLSGQ
As for B2, the “fold change of barcode share” value is 0.258 ± 0.16 under setting [1] and below 0.013 under setting [2].

B3: lolD L25A (protein)
chain: MNKILLQCDNLCKRYQEGSVQTDVAHNVSFSVGEGEMMAIVGSSGSGKSTLLHLLGGLDTPTSGDVIFNGQPMSKLSSAAKAELRNQKLGFIYQFHHLLPDFTALENVAMPLLIGKKKPAEINSRALEMLKAVGLDHRANHRPSELSGGERQRVAIARALVNNPRLVLADEPTGNLDARNADSIFQLLGELNRLQGTAFLVVTHDLQLAKRMSRQLEMRDGRLTAELSLMGAE
B3: the “fold change of barcode share” value reads like this: under setting [1], 1.14 ± 1.4; under setting [2], 0.0115 ± 0.013.

B4: lolD L25W (protein)
chain: B3 chain with A25W
B4: the “fold change of barcode share” value reads like this: under setting [1], 0.487 ± 0.21; under setting [2], below 0.00641.

B5: lolD L54P (protein)
chain: B3 chain with A25L, L54P
In the case of B5, the “fold change of barcode share” value under setting [1] was determined as 0.204 ± 0.25 and the “fold change of barcode share” value under setting [2] is below 0.0149.

B6: lolD L52P (protein)
chain: B3 chain with A25L, L52P
Consider B6, for which the “fold change of barcode share” value is 0.305 ± 0.021 under setting [1] and below 0.00569 under setting [2].

B7: lolD L52Q (protein)
chain: B3 chain with A25L, L52Q
On to B7, for which the “fold change of barcode share” value reads like this: under setting [1], 0.154 ± 0.0074; under setting [2], 0.0231 ± 0.023.

B8: lolD L54A (protein)
chain: B3 chain with A25L, L54A
On to B8, for which the “fold change of barcode share” value under setting [1] turned out to be 0.519 ± 0.0078 and the “fold change of barcode share” value under setting [2] is below 0.0132.

B9: lolD L54Q (protein)
chain: B3 chain with A25L, L54Q
As to B9, the “fold change of barcode share” value is, setting by setting: under setting [1], 0.159 ± 0.048; under setting [2], below 0.00764.

B10: lolC F184D (protein)
chain: MYQPVALFIGLRYMRGRAADRFGRFVSWLSTIGITLGVMALVTVLSVMNGFERELQNNILGLMPQAILSSEHGSLNPQQLPETAVKLDGVNRVAPITTGDVVLQSARSVAVGVMLGIDPAQKDPLTPYLVNVKQTDLEPGKYNVILGEQLASQLGVNRGDQIRVMVPSASQFTPMGRIPSQRLDNVIGTFAANSEVDGYEMLVNIEDASRLMRYPAGNITGWRLWLDEPLKVDSLSQQKLPEGSKWQDWRDRKGELFQAVRMEKNMMGLLLSLIVAVAAFNIITSLGLMVMEKQGEVAILQTQGLTPRQIMMVFMVQGASAGIIGAILGAALGALLASQLNNLMPIIGVLLDGAALPVAIEPLQVIVIALVAMAIALLSTLYPSWRAAATQPAEALRYE
Turning to B10, the “fold change of barcode share” value by setting is: under setting [1], 0.288 ± 0.17; under setting [2], 0.0166 ± 0.011.

B11: lolC I59Q (protein)
chain: B10 chain with I59Q, D184F
On to B11, for which the “fold change of barcode share” value reads like this: under setting [1], 0.323 ± 0.23; under setting [2], 0.0232 ± 0.017.

B12: lolC I59A (protein)
chain: B10 chain with I59A, D184F
As to B12, the “fold change of barcode share” value is 0.321 ± 0.21 under setting [1] and below 0.0108 under setting [2].

B13: lolC I59W (protein)
chain: B10 chain with I59W, D184F
Regarding B13, the “fold change of barcode share” value under setting [1] was 0.33 ± 0.27.

B14: lolC I59D (protein)
chain: B10 chain with I59D, D184F
With B14, the “fold change of barcode share” value stood at 0.268 ± 0.049 under setting [1] and 0.0291 ± 0.014 under setting [2].
